From publication PMC4336329 (PLoS ONE, 2015) come the findings set out here.

About 2,200 (0.71%) of roughly 310,000 compounds showed an effect of 50% or more. Effects have a minus sign here. The list shows a part of the results.

For this assay, the target named is human ether-à-go-go-related gene (hERG) potassium channel (human, UniProt Q12809). The experiment in a line: primary screen, population patch clamp on CHO cells stably expressing hERG.
human ether-à-go-go-related gene (hERG) potassium channel, sequence (Q12809 whole entry, looked up): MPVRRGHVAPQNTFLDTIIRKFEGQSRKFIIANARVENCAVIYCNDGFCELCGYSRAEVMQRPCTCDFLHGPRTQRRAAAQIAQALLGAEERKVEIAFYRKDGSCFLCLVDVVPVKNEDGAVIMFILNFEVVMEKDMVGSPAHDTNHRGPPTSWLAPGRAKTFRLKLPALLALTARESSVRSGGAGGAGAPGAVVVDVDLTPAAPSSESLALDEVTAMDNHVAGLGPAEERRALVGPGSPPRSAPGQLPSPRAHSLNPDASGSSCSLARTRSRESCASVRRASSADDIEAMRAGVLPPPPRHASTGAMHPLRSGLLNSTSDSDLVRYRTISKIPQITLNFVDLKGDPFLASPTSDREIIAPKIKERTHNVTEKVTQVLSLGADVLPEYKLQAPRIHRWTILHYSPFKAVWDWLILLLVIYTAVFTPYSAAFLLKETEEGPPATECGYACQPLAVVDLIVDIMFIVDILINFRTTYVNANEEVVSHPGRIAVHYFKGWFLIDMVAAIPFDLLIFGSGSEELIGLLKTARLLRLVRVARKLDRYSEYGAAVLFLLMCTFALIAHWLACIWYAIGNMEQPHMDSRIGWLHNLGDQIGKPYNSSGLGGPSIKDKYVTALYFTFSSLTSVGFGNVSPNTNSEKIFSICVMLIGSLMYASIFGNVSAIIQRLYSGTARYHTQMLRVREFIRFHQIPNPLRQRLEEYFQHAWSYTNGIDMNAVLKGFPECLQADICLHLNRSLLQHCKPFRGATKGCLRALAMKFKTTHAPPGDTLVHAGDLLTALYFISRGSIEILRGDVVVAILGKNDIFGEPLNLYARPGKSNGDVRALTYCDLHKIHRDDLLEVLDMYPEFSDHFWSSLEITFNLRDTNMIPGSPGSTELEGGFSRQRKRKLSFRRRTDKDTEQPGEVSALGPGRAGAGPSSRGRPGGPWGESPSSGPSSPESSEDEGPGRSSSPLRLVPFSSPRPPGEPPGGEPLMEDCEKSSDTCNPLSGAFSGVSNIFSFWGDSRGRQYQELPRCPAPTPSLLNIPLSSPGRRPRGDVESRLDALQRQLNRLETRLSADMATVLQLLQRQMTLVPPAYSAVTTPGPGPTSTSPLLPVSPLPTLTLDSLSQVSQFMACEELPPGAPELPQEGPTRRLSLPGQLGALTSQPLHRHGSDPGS
`CC1CN(S(=O)(=O)c2cccc(C(=O)OCC(=O)c3cccs3)c2)CC(C)O1` (stereo not drawn): the “hERG current change (%, negative = inhibition) at 1uM” value is on record as -3.03%.

As for `Cc1ccccc1CSCC(=O)c1c(N)n(CC(C)C)c(=O)n(C)c1=O`, the “hERG current change (%, negative = inhibition) at 1uM” value came out at 6.09%.

As for `O=C(Cn1c(=O)n(CC2CS2)c2ccccc21)N1CCCCCC1` (stereo not drawn), the “hERG current change (%, negative = inhibition) at 1uM” value is 7.16%.

On to `CCCCCN(C(=O)NC(=O)Nc1ccc(C)cc1)S(=O)(=O)c1ccccc1`, for which the “hERG current change (%, negative = inhibition) at 1uM” value worked out at 7.04%.

On to `CCC(C)c1nc2c(c(N3CCC3=O)c1-c1ccccc1)CCCC2` (stereo not drawn), for which the “hERG current change (%, negative = inhibition) at 1uM” value came to 5%.

Take `CC(C)n1c(CSCc2ccc(Cl)cc2Cl)n[nH]c1=S`: the “hERG current change (%, negative = inhibition) at 1uM” value turned out to be 5.17%.

As for `Clc1cccc(Cl)c1COc1ccncc1`, the “hERG current change (%, negative = inhibition) at 1uM” value is recorded as 10.6%.

With `COc1ccc(CC(=O)N(C)Cc2cccc(OC)c2OC)cc1S(=O)(=O)N1CCOCC1`, the “hERG current change (%, negative = inhibition) at 1uM” value stood at 1.78%.

`O=C(c1cccc(Cl)c1)N1CCCC(c2ccc(Cl)cc2)=N1`: the “hERG current change (%, negative = inhibition) at 1uM” value is given as 24.6%.

With `COc1ccc(C2=CC(=O)CC(c3ccccc3)C2)cc1` (stereo not drawn), the “hERG current change (%, negative = inhibition) at 1uM” value is 26.8%.

On to `OCCC1CN(Cc2ccc(C(F)(F)F)cc2)CCN1Cc1ccccc1` (stereo not drawn), for which the “hERG current change (%, negative = inhibition) at 1uM” value is listed as -10.6%.

For `CN1C(N)=NC(=O)/C1=C\c1ccc(Br)cc1`, the “hERG current change (%, negative = inhibition) at 1uM” value was determined as 15%.

`Cc1cccc(N2CCN(S(=O)(=O)c3ccc(-c4coc(C)n4)cc3)CC2C)c1` (stereo not drawn): the “hERG current change (%, negative = inhibition) at 1uM” value was 8.13%.

As to `COC(=O)C1=CN(CC2CCCO2)C=C(C(=O)OC)C1c1cccc(O)c1` (stereo not drawn), the “hERG current change (%, negative = inhibition) at 1uM” value is on record as 3.32%.

In the case of `CCCCSc1nc(O)c(Cc2ccccc2)c(=O)[nH]1`, the “hERG current change (%, negative = inhibition) at 1uM” value is 5.56%.

As for `Fc1ccc(NCc2nnc(SCc3nnc(-c4ccccc4)o3)n2CC2CCCO2)cc1` (stereo not drawn), the “hERG current change (%, negative = inhibition) at 1uM” value is listed as -28.3%.

Consider `COc1ccc(C(=O)/C=C/c2ccc3c(c2)OCCO3)cc1`, for which the “hERG current change (%, negative = inhibition) at 1uM” value is 18.7%.

Take `CCOC(=O)C(NC(=O)c1ccccc1)(OCc1ccc(F)cc1)C(F)(F)F` (stereo not drawn): the “hERG current change (%, negative = inhibition) at 1uM” value is listed as 9.79%.

Take `CC1(C(=O)NC2CCCCCCC2)CCC(=O)N1CCN1CCOCC1` (stereo not drawn): the “hERG current change (%, negative = inhibition) at 1uM” value is listed as 15.6%.

In the case of `CCOCCc1nnc(NC(=O)CCc2ccccc2)s1`, the “hERG current change (%, negative = inhibition) at 1uM” value was found to be 13.8%.

In the case of `CCOC(=O)C1(C)/C(=N/Nc2ccc(Cl)cc2)C(=O)C(=O)N1c1ccccc1` (stereo not drawn), the “hERG current change (%, negative = inhibition) at 1uM” value was 2.83%.

`CCCOc1ccc(N2C(=O)CC(SC(=NCC)Nc3cccc(F)c3)C2=O)cc1` (stereo not drawn): the “hERG current change (%, negative = inhibition) at 1uM” value was found to be 9.67%.

Regarding `COc1ccc(NC(=O)C2CCCN2S(=O)(=O)c2cccs2)c([N+](=O)[O-])c1` (stereo not drawn), the “hERG current change (%, negative = inhibition) at 1uM” value was found to be 2.01%.

As to `CCn1c(=O)c2ccccc2n2c(SCC(N)=O)nnc12`, the “hERG current change (%, negative = inhibition) at 1uM” value is listed as 14.1%.

In the case of `CCOc1ccc(OCCC(=O)OCC(=O)NNC(=O)c2ccccc2)cc1`, the “hERG current change (%, negative = inhibition) at 1uM” value is listed as 16.3%.

On to `CC(OC(=O)c1cccs1)C(=O)NCc1ccc2c(c1)OCO2` (stereo not drawn), for which the “hERG current change (%, negative = inhibition) at 1uM” value turned out to be 18.6%.

For `Cc1ccnc(NC(=O)c2ccc3c(c2)C(=O)N(CCC(C)C)C3=O)c1`, the “hERG current change (%, negative = inhibition) at 1uM” value amounted to 13.2%.

Turning to `CN(C)S(=O)(=O)c1cccc(C(=O)OCC(=O)Nc2ccc3c(c2)OCCO3)c1`, the “hERG current change (%, negative = inhibition) at 1uM” value stood at 15.7%.

Consider `Cc1nc2c(C)cccc2cc1C(=O)N/N=C/c1ccc(N(C)C)cc1`, for which the “hERG current change (%, negative = inhibition) at 1uM” value is -4.58%.

Regarding `CNC(=O)NC(=O)CSc1ncc(C(F)(F)F)cc1Cl`, the “hERG current change (%, negative = inhibition) at 1uM” value is listed as -0.143%.

With `CCn1nc(C)cc1C(=O)NC1CC(C)(C)Cc2c1cnn2-c1cccc(F)c1` (stereo not drawn), the “hERG current change (%, negative = inhibition) at 1uM” value is on record as -2.13%.

For `CCOCCOC(=O)C1=C(C)Nc2ccc(C)cc2S1`, the “hERG current change (%, negative = inhibition) at 1uM” value turned out to be 1.18%.

Regarding `COC(=O)c1nn(-c2ccc(OC)cc2)c(=O)cc1NN`, the “hERG current change (%, negative = inhibition) at 1uM” value is recorded as 22.4%.

Consider `CC1C/C(=N\NC(=O)c2cccnc2)CC(C)(C)C1` (stereo not drawn), for which the “hERG current change (%, negative = inhibition) at 1uM” value came out at 1.77%.

Take `CCOc1cc(CNCCO)cc(Br)c1OCc1ccc(Cl)cc1Cl.Cl`: the “hERG current change (%, negative = inhibition) at 1uM” value stood at 11.4%.

Take `Cc1ccc(S(=O)(=O)NC(=O)NCc2ccc(F)cc2)cc1`: the “hERG current change (%, negative = inhibition) at 1uM” value amounted to 8.24%.

In the case of `C/C(=N/OC(=O)c1ccccc1Br)c1ccc(C)cc1`, the “hERG current change (%, negative = inhibition) at 1uM” value stood at 21.7%.

Turning to `CC(Sc1ncnc2sccc12)C(=O)Nc1ccc(C(N)=O)cc1` (stereo not drawn), the “hERG current change (%, negative = inhibition) at 1uM” value was found to be 10.5%.

As to `Cc1ccc(NC(=O)C(OC(=O)c2cc(C)oc2C)c2ccccc2)cc1` (stereo not drawn), the “hERG current change (%, negative = inhibition) at 1uM” value is reported as 8.64%.

For the compound `CCOc1ccc(NC(=O)CCNS(=O)(=O)c2cccc3nsnc23)cc1`, the “hERG current change (%, negative = inhibition) at 1uM” value stood at 14.5%.

Turning to `COCC(=O)Nc1ccc2c(c1)OCO2`, the “hERG current change (%, negative = inhibition) at 1uM” value was 10.6%.

Regarding `O=C(Nc1ccccc1N1CCOCC1)c1ccc([N+](=O)[O-])o1`, the “hERG current change (%, negative = inhibition) at 1uM” value is given as -1%.

For `COc1ccc(OCCOCCOc2ccc(C)cc2[N+](=O)[O-])cc1`, the “hERG current change (%, negative = inhibition) at 1uM” value amounted to 5.86%.

In the case of `COc1ccc2[nH]c(=O)c(CN(Cc3ccc(C)cc3)Cc3nnnn3CC3CCCO3)cc2c1` (stereo not drawn), the “hERG current change (%, negative = inhibition) at 1uM” value is 9.11%.

Regarding `Cc1nc2sccn2c(=O)c1S(=O)(=O)N1CCN(c2cccc(Cl)c2)CC1`, the “hERG current change (%, negative = inhibition) at 1uM” value worked out at 2.45%.
